{
  "source": "paper PMC12136788",
  "binders": {"B1": {"name": "chr2:38870607:38870608:+_ENSMUSG00000026755_ENSMUST00000090993|perfect_dup|motif|central (ssRNA)", "RNA": "GGGAGUUCUACAGUCCGACGAUCGUCUUUUUAUUUUUUUUAAACAGUCUUUCUUGCUGUAAGAACUCUUAUAAUGGAGCCGGGUCCUCCUACUGCUAAGGCCUUUUCGUGCCACUGGAGUAACACUGCGCUGCUAUUUUCUGUCAACAGAGGAUUGAGCAUCA"}, "B2": {"name": "116313033_116323945_1268_3pUTR_ENSMUSG00000029516_ENSMUST00000051704|mouse|control|control (ssRNA)", "RNA": "GGGAGUUCUACAGUCCGACGAUCAAAACUGGAUCAUGCUCUCAUCUAAUUGGUCCUCGUAUCUGUUCAGAAGCGACAGCAAAUCCCCUCCAGGCUGAUAUUCCAUGACCAGGUAAAGGUUAUUUUUGUCCUGAAAGGCGUACUCAACAGAGGAUUGAGCAUCA"}, "B3": {"name": "45241262_45242349_214_CDS_ENSG00000142937_ENST00000396651|human|control|control (ssRNA)", "RNA": "GGGAGUUCUACAGUCCGACGAUCAAUCUUGGUGUUGGCAGCUGGGCGCCCCAACUCAUACUUCCGCUUCUUGUGGUAGGGCUUUCUCUUGCCCCCGGUUUUGCGGCGCUUGUGCCAGUUGUCCCGAGAGAUGCCCAUCGCUCGCAACAGAGGAUUGAGCAUCA"}, "B4": {"name": "chr14:78183846:78183847:+_ENSG00000119705_ENST00000557342|hu_hu|hu_hu_hu_mus_False|1_18 (ssRNA)", "RNA": "GGGAGUUCUACAGUCCGACGAUCUCUCAGAAAUCUUUCUUCAUCAGAUGUUUGAGCUCCGUGCAAAGCCUUUGCUCUUUGAGCUUGAACGUGGAUCUAUGGGAGGGAAAGCACUGUAUUUUCCUGUAAUUUUUUUUUCCGAAGCAACAGAGGAUUGAGCAUCA"}, "B5": {"name": "chr12:1019172:1019173:+_ENSG00000060237_ENST00000535572|hu_mus|FALSE|FALSE (ssRNA)", "RNA": "GGGAGUUCUACAGUCCGACGAUCGUUCACUGGCCAAGCAUCACUUCAAACAAGCUUGUCCCCACAUCUUCAGUCCUUAUCUUUCACACACAGCUCACAACCCUCCUCAUUCUUUCUGAAACAGAACUUUGUUUUCAACCACUGCAACAGAGGAUUGAGCAUCA"}, "B6": {"name": "chr12:17277247:17277248:+_ENSMUSG00000020571_ENSMUST00000057288|mus_hu|FALSE|FALSE (ssRNA)", "RNA": "GGGAGUUCUACAGUCCGACGAUCAAUUCGAUGGAGUUAAUUCGAUCACAUCAUCACUAGAGGAAUACAGACCAUUCACUGCCAGAAAGAAGGUACAGCUCACCAGACCGAGCACCAGGAGAGCCAUGCCGAGCGCCGGGCUACCAACAGAGGAUUGAGCAUCA"}, "B7": {"name": "chr13:60863204:60863205:+_ENSMUSG00000021559_ENSMUST00000077453|mus_hu|FALSE|FALSE (ssRNA)", "RNA": "GGGAGUUCUACAGUCCGACGAUCAGUCCAAACAGACCCUGCCCAAGCCAGAGGCUGCCCUCACCGGGAUACAACAGAGCUAAUGGAAUUGUAAGAGGUGCCGCUGUUGCAGCUCGAGGCAUAGGCCUCCUGGCCAUUGCCAUCCAACAGAGGAUUGAGCAUCA"}, "B8": {"name": "chr16:87451109:87451110:-_ENSG00000140948_ENST00000268616|hu_hu|motif|central (ssRNA)", "RNA": "GGGAGUUCUACAGUCCGACGAUCCUUCUCCAUGGAGAGCUGCUUAAAGACGGGGUAAUACUUGUGCAAACGCAGUUUCCGGAGCCAGUCUAGAAUCCCAUUCUGCUCCUGGGUCUGAGGGGUCUGCAGACUGGAAGGCAUGAGCAACAGAGGAUUGAGCAUCA"}, "B9": {"name": "36662353_36662473_466_3pUTR_ENSG00000101413_ENST00000373433|human|control|control (ssRNA)", "RNA": "GGGAGUUCUACAGUCCGACGAUCAGACGAUGGGUCCCGCGUGCUUGCGGUGGUGGAUGAGCCAAAGGGACAGGGUCUGCACGCUCUGCUGAGAGUUGCUCAGCUCCGAGAGCUUCUUCUCCAGCGCCGACUCAGAGAAGGAGGCAACAGAGGAUUGAGCAUCA"}, "B10": {"name": "41397836_41400616_619_CDS_ENSMUSG00000025764_ENSMUST00000026865|mouse|control|control (ssRNA)", "RNA": "GGGAGUUCUACAGUCCGACGAUCAUGAUUCAUAUUGUCAUAGCAUCGCUGUUCGAAUUCCUCCAAGACCCUUUCCAUGGUGUACUCGUCCAGCUCCGGCAUCCCCAUCUCCUUAAAUUCUUCAUUGGUUACUUCCAGCCACGCCAACAGAGGAUUGAGCAUCA"}, "B11": {"name": "37339268_37339388_916_CDS_ENSMUSG00000035437_ENSMUST00000112920|mouse|control|control (ssRNA)", "RNA": "GGGAGUUCUACAGUCCGACGAUCAUCAUCUUCUUUUAUUUCUAAAGACACAGAGAAGGUAAAGAUGUCGCUGUCAGGAGUCUGUGGUGCAGCUGUGGCUGAGAGUGGGGUCUGCUUGGCAGAGCGGCGGAAGGCGGUGGCAAACAACAGAGGAUUGAGCAUCA"}, "B12": {"name": "chr5:146772872:146772873:-_ENSG00000113657_ENST00000343218|hu_hu|motif|central (ssRNA)", "RNA": "GGGAGUUCUACAGUCCGACGAUCGCUCUGUCCCUGCCUGGCCUUCCCAACCCAGGAAAGAGAAGGAUUUGAAAGCAACACGGAGAAAGAGGCCUGAGCAAACACUGGCACAAUCAAGCAGGUGGAAGAAAUGGUUGGGUCUUGCAACAGAGGAUUGAGCAUCA"}, "B13": {"name": "60193790_60193910_1887_CDS_ENSG00000139970_ENST00000267484|human|control|control (ssRNA)", "RNA": "GGGAGUUCUACAGUCCGACGAUCGGGCAGCUCGGGGCCAGGCUGGGGCUCAGUUGAGGGGUAGUCGAGGAAGGAACCCGGCUCGGCCAGGCCCCGCCGGCUUGGCGCACGCUCCUCGGCCCGGACGCCAGUCUCCUCCCGGAUCAACAGAGGAUUGAGCAUCA"}, "B14": {"name": "121703871_121703991_501_3pUTR_ENSMUSG00000042744_ENSMUST00000119892|mouse|control|control (ssRNA)", "RNA": "GGGAGUUCUACAGUCCGACGAUCAGUCCACGCAAGGCAUUCAGGCGGUAUUCCAGCAGGCGGGCAUAGGCAUUGCUCUGGUUCCCACAAACAGAGCGCAAACGUUCUGCUAAUUCUGUUGGGUUCUUGGUCUCGAAUGUUAAACAACAGAGGAUUGAGCAUCA"}, "B15": {"name": "chr1:39494564:39494565:+_ENSG00000168653_ENST00000372967|hu_hu|hu_hu_hu_mus_True|68_108 (ssRNA)", "RNA": "GGGAGUUCUACAGUCCGACGAUCAUGUGCACGUCUCAUCGUUUUGUACCGAAGCAAGCACUCUUCGAAAUCAUCAUACUCUAUCUUGCACUCCUUUUUCGCCCGGGUCCCACCGAUCCCGUGUGCACACUCUAUCCACUCUUUCAACAGAGGAUUGAGCAUCA"}, "B16": {"name": "169404142_169417752_467_CDS_ENSG00000172292_ENST00000392687|human|control|control (ssRNA)", "RNA": "GGGAGUUCUACAGUCCGACGAUCAUCCCAGUCCAGUUGCUUGGAGAGGCCUUCCAAUCUCUUUUCAUCAGGAUGCUUUGUAAUUGCAGUGAAGACCUUUUCCAGAAUGGCAUUGGGCGGAGCAAUUUGUGGUCCAUUGGCCUGCAACAGAGGAUUGAGCAUCA"}, "B17": {"name": "chr4:48472932:48472933:-_ENSMUSG00000028345_ENSMUST00000030030|mus_mus|motif|central (ssRNA)", "RNA": "GGGAGUUCUACAGUCCGACGAUCGGUUGAAGCAUUUGCCAGCGAGACCAUGAUAUCAGACAGUGUUAAGUUCAGUAAAAGAUGAUCGGCAUUAUUGGAGAGAACUGUGCAAUGCUUGAUGCUUUUAUUUGUAUCUUUCUUCCGCAACAGAGGAUUGAGCAUCA"}, "B18": {"name": "chrX:140365796:140365797:-_ENSMUSG00000031285_ENSMUST00000033642|mus_mus|mus_mus_mus_hu_False|98_108 (ssRNA)", "RNA": "GGGAGUUCUACAGUCCGACGAUCCUUCUCAUUACUUAAUGCCUGCAAGGUUCUGGUUCGGUAGAAGCUACAGUGGGCGCUGUGAGUGGGGCUAGGCAACCCAUUCAUCCGGGAGCCUCGCAUGUUCCUGGAUGUCUUAUCUCUCAACAGAGGAUUGAGCAUCA"}, "B19": {"name": "18916197_18916317_843_CDS_ENSMUSG00000020160_ENSMUST00000068264|mouse|control|control (ssRNA)", "RNA": "GGGAGUUCUACAGUCCGACGAUCCAUGGCGUUGGUGUGAGCUGUGUGCGGGUACUGAUGCGAGUGCAGAGGAGGCCCGUGGUUCAGGUGGUGGACCGGUUGCAUGGACCUGGCUGCAUGCGGGUCCCCAUACAUCGUGGAGGGCAACAGAGGAUUGAGCAUCA"}, "B20": {"name": "chr16:17389515:17389516:-_ENSMUSG00000041720_ENSMUST00000036161|mus_mus|FALSE|FALSE (ssRNA)", "RNA": "GGGAGUUCUACAGUCCGACGAUCUCAGAUUCAAUGAGAAAAAUGCCCAAUGCAAUCACUGCAUCUCUCCGUCUUUCAUCUAGUUGGAAGAUUCCAUGAAAAUCUACUGGGCACAUGCAAAGCAGCUUUUGAACCUGAGACAGGCAACAGAGGAUUGAGCAUCA"}, "B21": {"name": "chr17:73519777:73519778:+_ENSG00000182173_ENST00000333213|hu_mus|FALSE|FALSE (ssRNA)", "RNA": "GGGAGUUCUACAGUCCGACGAUCUUUGCCAGGGCUGUUUUUUCGGAACGUCGCCACAGCGUCAGCCUGGUAAACAUCGAAGCUGAUCUGCAAGCCUCCAGACUUCUCCAGCAGCCGGUAACCUCCAUCAGCAAGGUGUGUCGUCAACAGAGGAUUGAGCAUCA"}, "B22": {"name": "44136230_44137174_737_CDS_ENSMUSG00000032123_ENSMUST00000054708|mouse|control|control (ssRNA)", "RNA": "GGGAGUUCUACAGUCCGACGAUCUAGUGACUGACCGGCCUCUAGGCCAUUAAUGCCCGCCAGGAUGUUGAUGGCAUUGGUACAGAACACUGCAAGCAGCCCCAUGUAGACGUAGUACAGGAUCCCCAAGUCCAAAUGCAGGCCCAACAGAGGAUUGAGCAUCA"}},
  "note": "Some of the results follow.",
  "data": [
    {"target": "T1, UNK ZnF1-3 (human, UniProt Q9C0B0 31-174)", "T1 sequence": "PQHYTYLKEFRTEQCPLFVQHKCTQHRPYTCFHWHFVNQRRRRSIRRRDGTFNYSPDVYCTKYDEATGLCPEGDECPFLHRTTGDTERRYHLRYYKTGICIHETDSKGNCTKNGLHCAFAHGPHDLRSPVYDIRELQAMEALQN", "assay": "nsRBNS (natural sequence RNA bind-n-seq); RBNS binding buffer (assumed for nsRBNS): 25 mM Tris pH 7.5, 150 mM KCl, 3 mM MgCl2, 0.01% Triton X-100, 500 ug/ml BSA, 20 U/ml SUPERase-In, 4 C; UNK is unkempt and MSI1 is Musashi-1; names of the RNAs are library labels; protein concentration not given here; high values mean tight binding", "units": {"binding signal": "enrichment R"}, "values": [
      {"binder": "B1", "binding signal": 0.52},
      {"binder": "B2", "binding signal": 0.796},
      {"binder": "B3", "binding signal": 0.428},
      {"binder": "B4", "binding signal": 0.824},
      {"binder": "B5", "binding signal": 1.22},
      {"binder": "B6", "binding signal": 1.61},
      {"binder": "B7", "binding signal": 0.908},
      {"binder": "B8", "binding signal": 0.838},
      {"binder": "B9", "binding signal": 1.54},
      {"binder": "B10", "binding signal": 1.08},
      {"binder": "B11", "binding signal": 1.64},
      {"binder": "B12", "binding signal": 2.99},
      {"binder": "B13", "binding signal": 1.05},
      {"binder": "B14", "binding signal": 1.39},
      {"binder": "B15", "binding signal": 0.67},
      {"binder": "B16", "binding signal": 0.773},
      {"binder": "B17", "binding signal": 1.24},
      {"binder": "B18", "binding signal": 0.659},
      {"binder": "B19", "binding signal": 1.01},
      {"binder": "B20", "binding signal": 0.573},
      {"binder": "B21", "binding signal": 0.804},
      {"binder": "B22", "binding signal": 1.02}
    ]}
  ]
}
